In PubChem BioAssay AID686979 (National Center for Advancing Translational Sciences (NCATS), 2013):
Screen size: about 420,000 compounds; about 50,000 (12%) were called active. Inconclusive results (about 26%) are left out. Calls follow the shape of the dose curve; as a rule, active = well fitted inhibition curve with a large enough effect; inconclusive = small, poorly fitted or top-dose-only effect; inactive = flat fitted curve, though single readings scatter. Only a part is listed here, and it is no random draw. A structure can be active in one record and inactive in another.

Test: qHTS for Inhibitors of human tyrosyl-DNA phosphodiesterase 1 (TDP1): qHTS in cells in presence of CPT; also: nearly all actives have a fitted effect of over 55% in size
Conditions: chicken DT40 Tdp1-/-;hTDP1 cells + 20 nM CPT, ATP luminescence, 48 h; series mostly up to 46.2 µM; activity change, negative = growth inhibition: at the top concentration
Outline: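 Chicken DT40 Tdp1-/- cells stably complemented with human TDP1 were seeded at 400 cells/well in medium containing 20 nM camptothecin, exposed to pin-transferred compounds, and grown at 37 °C for at least 48 hr. Viability was read as ATP luminescence.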
% is scaled to controls: 0 for no effect and ±100 for the full control effect; potency is read from the fitted curve at half-maximal effect.

| Compound | Potency | activity change, negative = growth inhibition |
| --- | --- | --- |
| O=C1c2ccccc2C(=O)c2c(O)c(O)cc(O)c21 | inactive | – |
| O=C1/C(=C\c2cccnc2)SC(=S)N1c1ccc(F)cc1 | – | inactive: -15.6% |
| Cc1cc(C(=O)COc2cccc(-n3cnnn3)c2)c(C)n1-c1ccccc1 | active: 23.1 µM | – |
| C/C=C/C=N\NC(=O)c1ccncc1 | – | inactive: 0.212% |
| COC(=O)[C@]12CCCCC=C1N(CCc1ccc(OC)c(OC)c1)C(=O)[C@H](CC(=O)NCc1cccc3ccccc13)C2 | active: 10.3 µM | – |
| N#CC[C@H](Cc1ccccc1)N1CCN(Cc2ccccc2)CCC1=O | – | inactive: -14.8% |
| COc1ccc(/C=C/C(=O)c2ccc([N+](=O)[O-])o2)cc1OC | active: 0.58 µM | – |
| CNCC(O)c1ccc(O)c(O)c1 (configuration not stated) | – | inactive: 2.19% |
| O=C(NCc1ccccc1)c1cc2ccccc2o1 | – | inactive: -25.4% |
| Nc1ccn(C2OC(CO)C(O)C2O)c(=O)n1 (configuration not stated) | active: 0.0164 µM | – |
| CCOc1cc(NC(=S)NCC(C)C)c(OCC)cc1NC(=O)c1ccco1 | active: 14.6 µM | – |
| Cc1cccc(NC(=O)Nc2ccc(Br)cc2)n1 | – | inactive: -10.5% |
| CCOC(=O)c1c(NC(=O)c2cc(CC(C)C)on2)sc(C(C)=O)c1C | – | inactive: -27.7% |
| COc1cc(NC(=O)N2CCC3(CC2)Nc2ccccc2-n2cccc23)cc(OC)c1OC | active: 20.6 µM | – |
| Cc1noc(C)c1COc1cccc(C(=O)NCCc2c[nH]c3ccccc23)c1 | active: 13 µM | – |
| C[C@@H]1CN([C@H](C)CO)C(=O)CCCn2nncc2CO[C@H]1CN(C)Cc1ccc2c(c1)OCCO2 | – | inactive: 5.61% |
| COc1ccc(S(=O)(=O)N2CCC[C@H]2C(=O)N2CCC[C@H]2C(=O)NCc2ccncc2)cc1C | – | inactive: -35.1% |
| CCCCCCCCn1c2c(c(=N)c3ccccc31)CCC2 | active: 0.411 µM | – |
| COc1ccc(-n2c(C)c3c(C)nnc(C)c3c2C)cc1OC | active: 16.4 µM | – |

| Compound | Potency | activity change, negative = growth inhibition |
| --- | --- | --- |
| CC(=O)C1=CCC(c2ccccc2)N(S(=O)(=O)c2ccccc2C)C1 (configuration not stated) | – | inactive: -26.9% |
| CCOc1ccc(NC(=O)N2CCC(c3ccc(C)cc3)C2)cc1 (configuration not stated) | – | inactive: -23.4% |
| O=C(CCc1ccccc1)N[C@@H]1c2ccccc2CC[C@@H]1OCc1ccccc1 | – | inactive: -23.6% |
| O=C(Cn1c(C(=O)OCCO)cc2ccccc21)c1ccccc1 | active: 8.2 µM | – |
| COc1ccc(NC(=O)CN(C)S(=O)(=O)c2cccc3nsnc23)cc1 | – | inactive: -22.5% |
| O=C(NCc1ccco1)c1cc(S(=O)(=O)N2CCCc3ccccc32)ccc1Cl | active: 14.6 µM | – |
| COc1cc(NS(=O)(=O)c2ccc(N)cc2)ncn1 | – | inactive: 4.62% [at 21.1 µM] |
| COc1ccc(C(=O)Nc2nnc(S(=O)(=O)N3CCC(C)CC3)s2)cc1OC | – | inactive: -13.3% |
| O=C(NCCc1ccccc1)c1ccc(CSc2nc3ccncc3n2Cc2ccccc2F)cc1 | active: 14.6 µM | – |
| C[C@H](CO)N1C[C@H](C)[C@@H](CN(C)C(=O)NC2CCCC2)Oc2cc(Br)ccc2S1(=O)=O | – | inactive: -29.8% |
| Cc1ccc(S(=O)(=O)N(C)C[C@H]2OCc3cnnn3CCCC(=O)N([C@@H](C)CO)C[C@H]2C)cc1 | – | inactive: -11.8% |
| COc1cccc(CC(=O)NCC2(N3CCCCC3)CCCCC2)c1 | – | inactive: 17.8% |
| COc1ccc(Cl)cc1C(=O)NCCc1ccc(S(=O)(=O)NC(=O)NC2CCCCC2)cc1 | inactive | – |
| CC[C@@H]1[C@H]2CCCC(=O)N3CC[C@@H](C[C@@H]1OC(=O)NCc1ccccc1)[C@@H]23 | – | inactive: -2.62% |
| C[C@@H]1CN([C@@H](C)CO)C(=O)CCCn2nncc2CO[C@H]1CN(C)S(=O)(=O)c1ccc2c(c1)OCCCO2 | – | inactive: 6.38% |
| COc1cccc(-n2cc(C(=O)NCc3ccc(C)cc3)c3ccccc3c2=O)c1 | active: 14.6 µM | – |
| COc1cc(C(=O)N2CCCc3ccccc32)cc(OC)c1OC | active: 18.4 µM | – |
| CCOC(=O)[C@@H]1[C@H]2COc3cc(OC)ccc3[C@H]2N2C(=O)N(c3ccccc3)C(=O)[C@]12C | – | inactive: 6.2% |
| CCN(CCCCOC(=O)c1ccc(OC)c(OC)c1)C(C)Cc1ccc(OC)cc1 (configuration not stated) | inactive | – |

| Compound | Potency | activity change, negative = growth inhibition |
| --- | --- | --- |
| CCOc1ccccc1NC(=O)CCS(=O)(=O)c1ccc(OC)cc1 | – | inactive: -14.9% |
| Cc1ccc(Cn2ccnc2SCC(=O)NC2CCCC2)cc1 | – | inactive: 2.69% |
| CC(=O)Nc1cccc(NC(=O)CSc2nccn2Cc2ccco2)c1 | – | inactive: -23.3% |
| CCOC(=O)N1CCN(S(=O)(=O)N2CCCC(C(=O)NCc3ccccc3OC)C2)CC1 (configuration not stated) | – | inactive: -25.4% |
| COc1ccc(/C=N/NS(=O)(=O)c2ccccc2)cc1OC | active: 20.6 µM | – |
| C[C@H](O)[C@H](O)[C@H]1CNc2nc(N)[nH]c(=O)c2N1 | – | inactive: -1.79% |
| CC(=O)Nc1ccccc1NC(=O)c1cccc2ccccc12 | – | inactive: 1.36% |
| OC(CCN1CCCC1)(c1ccccc1)C1CCCCC1 (configuration not stated) | inactive | – |
| CC(CN(C)C)CN1c2ccccc2CCc2ccccc21 (configuration not stated) | – | inactive: 4.14% |
| COC(=O)[C@H]1[C@H]2C[C@H]3c4[nH]c5ccccc5c4CCN3C[C@H]2CC[C@@H]1O | inactive | – |
| COc1cc(C(=O)Nc2ccc(S(=O)(=O)N(C)c3ccccc3)cc2)cc(OC)c1OC | active: 16.4 µM | – |
| COc1ccc(/C=C/C(=O)N[C@@H](C)C(=O)O)cc1 | – | inactive: 38.6% |
| CC(C)(C)NC(=O)[C@H]1CC[C@H]2[C@@H]3CC[C@H]4NC(=O)C=C[C@]4(C)[C@H]3CC[C@]12C | – | inactive: -28.3% |
| Cc1cc(=O)oc2cc(OCC(=O)N3c4ccccc4CC3C)ccc12 (configuration not stated) | active: 4.11 µM | – |
| COc1cc(Cl)c(C)cc1NC(=O)c1ccc2c(SCC(=O)O)c3c(nc2c1)CCCC3 | – | inactive: 1.68% |
| C/C(=N/NC(=O)c1ccncc1)C1=C(O)CC(C)(C)CC1=O | – | inactive: 31.5% |
| CNC[C@H]1Oc2cc(Br)ccc2S(=O)(=O)N([C@@H](C)CO)C[C@H]1C | – | inactive: -21.5% |
| O=C(Nc1cccc(Cl)c1Cl)c1cc(S(=O)(=O)NCCc2ccccc2)ccc1F | – | inactive: -14% |
| C[C@H](CO)N1C[C@H](C)[C@@H](CN(C)C(=O)Nc2ccc(C(F)(F)F)cc2)Oc2c(NC(=O)NC3CCCCC3)cccc2C1=O | – | inactive: -83.7% |
